# Experimental data published in the supplement of paper PMC8728848.
# Some of the results follow.
# Key:
# Assay in all cases: glycan array binding signal (z-score within array); higher = stronger binding
# Details in all cases: glycan notation: IUPAC condensed, linker removed
# [1] = biological target: Neu5Ac(a2-6)Gal(b1-4)GlcNAc(b1-2)Man(a1-3)[Neu5Ac(a2-6)Gal(b1-4)GlcNAc(b1-2)Man(a1-6)]Man(b1-4)GlcNAc(b1-4)GlcNAc
# In short: (§1)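 The binding signal is a Z-score computed within each array and averaged over linkers. Arrays of the same protein sequence at different concentrations or buffers were also averaged together. Data originate from 3228 arrays in the Consortium for Functional Glycomics database, kept only where the protein sequence was available.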
# [2] = biological target: Neu5Ac(a2-6)Gal(b1-4)GlcNAc(b1-2)Man(a1-6)Man(b1-4)GlcNAc(b1-4)GlcNAc
# In short: as §1
# [3] = biological target: Neu5Ac(a2-6)Gal(b1-4)GlcNAc(b1-2)Man(a1-6)[Gal(b1-4)GlcNAc(b1-2)Man(a1-3)]Man(b1-4)GlcNAc(b1-4)GlcNAc
# In short: as §1
# [4] = biological target: Neu5Ac(a2-6)Gal(b1-4)GlcNAc(b1-2)Man(a1-6)[GlcNAc(b1-2)Man(a1-3)]Man(b1-4)GlcNAc(b1-4)GlcNAc
# In short: as §1
# [5] = biological target: Neu5Ac(a2-6)Gal(b1-4)GlcNAc(b1-2)Man(a1-6)[Man(a1-3)]Man(b1-4)GlcNAc(b1-4)GlcNAc
# In short: as §1
# [6] = biological target: Neu5Ac(a2-6)Gal(b1-4)GlcNAc(b1-3)Gal(b1-3)GlcNAc
# In short: as §1
# [7] = biological target: Neu5Ac(a2-6)Gal(b1-4)GlcNAc(b1-3)Gal(b1-4)GlcNAc
# In short: as §1
# [8] = biological target: Neu5Ac(a2-6)Gal(b1-4)GlcNAc(b1-3)Gal(b1-4)GlcNAc(b1-3)Gal(b1-4)GlcNAc
# In short: as §1
# [9] = biological target: Neu5Ac(a2-6)Gal(b1-4)GlcNAc(b1-3)Gal(b1-4)[Fuc(a1-3)]GlcNAc(b1-3)Gal(b1-4)[Fuc(a1-3)]GlcNAc
# In short: as §1
# [10] = biological target: Neu5Ac(a2-6)Gal(b1-4)GlcNAc(b1-3)GalNAc
# In short: as §1
# [11] = biological target: Neu5Ac(a2-6)Gal(b1-4)GlcNAc6S
# In short: as §1
# Neu5Ac(a2-6)GalNAc = biological target: Neu5Ac(a2-6)GalNAc
# In short: as §1
# [12] = biological target: Neu5Ac(a2-6)GalNAc(b1-4)GlcNAc
# In short: as §1
# [13] = biological target: Neu5Ac(a2-6)GlcNAc(b1-4)GlcNAc
# In short: as §1
# [14] = biological target: Neu5Ac(a2-6)GlcNAc(b1-4)GlcNAc(b1-4)GlcNAc
# In short: as §1
# Neu5Ac(a2-8)Neu5Ac = biological target: Neu5Ac(a2-8)Neu5Ac
# In short: as §1
# [15] = biological target: Neu5Ac(a2-8)Neu5Ac(a2-3)Gal(b1-4)Glc
# In short: as §1
# [16] = biological target: Neu5Ac(a2-8)Neu5Ac(a2-3)[GalNAc(b1-4)]Gal(b1-4)Glc
# In short: as §1
# [17] = biological target: Neu5Ac(a2-8)Neu5Ac(a2-8)Neu5Ac
# In short: as §1
# [18] = biological target: Neu5Ac(a2-8)Neu5Ac(a2-8)Neu5Ac(a2-3)Gal(b1-4)Glc
# In short: as §1
# [19] = biological target: Neu5Ac(a2-8)Neu5Ac(a2-8)Neu5Ac(a2-3)[GalNAc(b1-4)]Gal(b1-4)Glc
# In short: as §1
# [20] = biological target: Neu5Ac(a2-8)Neu5Ac(a2-8)Neu5Ac(a2-8)Neu5Ac(a2-3)[GalNAc(b1-4)]Gal(b1-4)Glc
# In short: as §1
# [21] = biological target: Neu5Ac(b2-6)Gal(b1-4)GlcNAc
# In short: as §1
# Neu5Ac(b2-6)GalNAc = biological target: Neu5Ac(b2-6)GalNAc
# In short: as §1
# [22] = biological target: Neu5Ac9Ac(a2-3)Gal(b1-3)GlcNAc
# In short: as §1
# [23] = biological target: Neu5Ac9Ac(a2-3)Gal(b1-4)GlcNAc
# In short: as §1
# [24] = biological target: Neu5Ac9Ac(a2-6)Gal(b1-4)GlcNAc
# In short: as §1
# [25] = biological target: Neu5Gc(a2-3)Gal(b1-3)GlcNAc
# In short: as §1
# [26] = biological target: Neu5Gc(a2-3)Gal(b1-3)[Fuc(a1-4)]GlcNAc
# In short: as §1
# Neu5Gc(a2-3)Gal(b1-4)Glc = biological target: Neu5Gc(a2-3)Gal(b1-4)Glc
# In short: as §1
# [27] = biological target: Neu5Gc(a2-3)Gal(b1-4)GlcNAc
# In short: as §1
# [28] = biological target: Neu5Gc(a2-3)Gal(b1-4)[Fuc(a1-3)]GlcNAc
# In short: as §1
# [29] = biological target: Neu5Gc(a2-6)Gal(b1-4)GlcNAc
# In short: as §1
# Neu5Gc(a2-6)GalNAc = biological target: Neu5Gc(a2-6)GalNAc
# In short: as §1
# [30] = biological target: Neu5Gc(b2-6)Gal(b1-4)GlcNAc
# In short: as §1
binder,measurement,setting,value
"SAG3 (Toxoplasma gondii), Q9BJ39 (protein) MQLWRRRAAGPASLGRQSLPLGCFFAAFGLCVLSAILGTGERGLFVAAGNSRRKITYFGTLTQKAPNWYRCSSTRAKEEVVGHVTLNKEHPDMTIECVDDGLGGEFLPLEGARSSYPRVCHIDAKDQDDCERNRGFLTDYIPGAKQYWYKIEKVEQNGEQSVLYKFTVPWILLPPAKQRYKVGCRYPNHEYCFVEVTVEPTPPMVEGKRVTCGYSESGPVNLEVDLSKNANFIEIRCGEQHHPQPSTYTLQYCSGDSVDPQKCSPQSLTNIFYDYSSSWWKGKLNGPDGATLTIPPGGFPEEDKSFLVGCSLTVDGPPFCNVKVRVAGNPRKWERGGGGHPGSGGLQPGTDGETQAGTGSSAGASSRMASVALAFLLGLLVHVAA",glycan array binding signal (z-score),[1],-0.101
same,glycan array binding signal (z-score),[2],0.041
same,glycan array binding signal (z-score),[3],-0.419
same,glycan array binding signal (z-score),[4],-0.571
same,glycan array binding signal (z-score),[5],-0.001
same,glycan array binding signal (z-score),[6],-0.03
same,glycan array binding signal (z-score),[7],-0.143
same,glycan array binding signal (z-score),[8],-0.049
same,glycan array binding signal (z-score),[9],-0.312
same,glycan array binding signal (z-score),[10],0.144
same,glycan array binding signal (z-score),[11],-0.656
same,glycan array binding signal (z-score),Neu5Ac(a2-6)GalNAc,0.099
same,glycan array binding signal (z-score),[12],-0.434
same,glycan array binding signal (z-score),[13],0.028
same,glycan array binding signal (z-score),[14],0.34
same,glycan array binding signal (z-score),Neu5Ac(a2-8)Neu5Ac,-0.242
same,glycan array binding signal (z-score),[15],0.246
same,glycan array binding signal (z-score),[16],2.27
same,glycan array binding signal (z-score),[17],0.149
same,glycan array binding signal (z-score),[18],0.127
same,glycan array binding signal (z-score),[19],-0.005
same,glycan array binding signal (z-score),[20],-0.615
same,glycan array binding signal (z-score),[21],0.676
same,glycan array binding signal (z-score),Neu5Ac(b2-6)GalNAc,-0.099
same,glycan array binding signal (z-score),[22],-0.025
same,glycan array binding signal (z-score),[23],-0.479
same,glycan array binding signal (z-score),[24],0.292
same,glycan array binding signal (z-score),[25],-0.073
same,glycan array binding signal (z-score),[26],-0.083
same,glycan array binding signal (z-score),Neu5Gc(a2-3)Gal(b1-4)Glc,1.11
same,glycan array binding signal (z-score),[27],-0.368
same,glycan array binding signal (z-score),[28],0.185
same,glycan array binding signal (z-score),[29],-0.387
same,glycan array binding signal (z-score),Neu5Gc(a2-6)GalNAc,-0.546
same,glycan array binding signal (z-score),[30],-0.305
